# Measurements from the supplement of paper PMC12067093, “Discovery and optimisation of a covalent ligand for TRIM25 and its application to targeted protein ubiquitination” (Chemical Science, 2025).
# Targets with the largest changes are over-represented here; the source holds about 21,000 in all.
# Compound: CC1Cc2ccccc2N1C(=O)C1CCCN(C1)C(=O)CCl (mixture of isomers) [TRIM25 ligand 11 (diastereomer mixture)]
# Assay: probe-labelled cysteine peptide fold change vs DMSO (competition) (log2 fold change); higher = less target engagement (more negative = stronger competition)
# Details: 10 µM; THP-1; incubation time: 4 h
# 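Further: competitive chemoproteomic profiling in live THP-1 cells with an iodoacetamide desthiobiotin (IA-DTB) probe, comparing probe-labelled peptide intensities in compound-treated cells against DMSO-treated controls.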
# UniProt Q8N1F8, sequence (Q8N1F8 whole entry, looked up): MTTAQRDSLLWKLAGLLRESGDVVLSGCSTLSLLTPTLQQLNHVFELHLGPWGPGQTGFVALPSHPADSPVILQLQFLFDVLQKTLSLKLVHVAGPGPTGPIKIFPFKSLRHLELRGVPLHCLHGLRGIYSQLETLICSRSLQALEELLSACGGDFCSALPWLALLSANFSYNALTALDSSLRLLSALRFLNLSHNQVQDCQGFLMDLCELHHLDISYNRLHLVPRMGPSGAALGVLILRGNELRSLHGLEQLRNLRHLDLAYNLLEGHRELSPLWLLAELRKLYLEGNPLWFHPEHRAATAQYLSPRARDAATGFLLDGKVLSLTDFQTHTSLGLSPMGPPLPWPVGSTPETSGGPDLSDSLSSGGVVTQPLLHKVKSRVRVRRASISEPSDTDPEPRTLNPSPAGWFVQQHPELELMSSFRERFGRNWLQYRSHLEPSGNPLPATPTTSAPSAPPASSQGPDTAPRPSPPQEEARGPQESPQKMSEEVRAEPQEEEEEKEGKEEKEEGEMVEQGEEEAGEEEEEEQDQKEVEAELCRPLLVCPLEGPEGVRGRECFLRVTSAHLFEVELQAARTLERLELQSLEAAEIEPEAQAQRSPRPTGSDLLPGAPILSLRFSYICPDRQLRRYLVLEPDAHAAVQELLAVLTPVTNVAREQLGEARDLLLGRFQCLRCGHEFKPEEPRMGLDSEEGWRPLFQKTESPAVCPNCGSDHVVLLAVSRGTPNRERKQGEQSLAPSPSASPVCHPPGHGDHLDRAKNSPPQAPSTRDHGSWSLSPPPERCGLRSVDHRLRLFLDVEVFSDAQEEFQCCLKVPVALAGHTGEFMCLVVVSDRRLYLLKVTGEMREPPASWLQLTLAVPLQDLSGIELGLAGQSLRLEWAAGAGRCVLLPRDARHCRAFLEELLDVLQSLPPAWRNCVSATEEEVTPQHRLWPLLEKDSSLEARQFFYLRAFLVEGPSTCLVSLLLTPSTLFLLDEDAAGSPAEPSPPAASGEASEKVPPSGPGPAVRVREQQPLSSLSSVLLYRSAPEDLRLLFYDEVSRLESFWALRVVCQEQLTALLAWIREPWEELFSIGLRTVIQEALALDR
target,measurement,value
STK11IP_Q8N1F8_918_NCVSATEEEVTPQHR (UniProt Q8N1F8),probe-labelled cysteine peptide fold change,0.213
